Measurements from the RNAGym collection of RNA variant scans (doi:10.7554/elife.90254).
Read counts are not given, so values of variants with three or more changes are uncertain.

B1: LINE1-mini (parent)
chain: GGCAGAGCUCAACACAGCGUGGCAAAGUGGCUGUGGCUAGACUGCC

Variants of: B1
Test: self-cleavage, relative activity (ratio to wild type); higher = more cleavage; in vitro, sequencing; the parent is a self-cleaving ribozyme

Row | Variant | self-cleavage
1 | G19U A26G C42G | 0.02
2 | A6C C18A C37U C46A | 0.03
3 | G2U A11C G22U | 0.02
4 | C15A A24U G29C U38A U43A | 0.03
5 | U34C G36A C37U | 0.02
6 | A26C A39U U43A | 0.04
7 | C8U A39C C42U | 0.15
8 | A4U G22U C31A A41U | 0.06
9 | C3G C13A C18U C45A | 0.1
10 | C10A C13U U20G | 0.02
11 | C13A C23U C31A U38A | 0.04
12 | G5U C18U A26U | 0.03
13 | A6C C8U C23U | 0.11
14 | A4U A16C G22U A26U G44U | 0.02
15 | A6C C18U C23G | 0.9
16 | C10A A14G G19U U32A U38A C42U | 0.01
17 | A4G A11G C13U G30U C45G | 0.04
18 | A6G C13A A26C G44U C45G | 0.09
19 | U20C U43C C46U | 0.03
20 | G2C G7C U20G C31G G35U C46A | 0.02
21 | C8G A24U G30U U32C | 0.2
22 | C10U U20C C31U U34A G36C C42G G44C | 0.01
23 | A39U C45A C46A | 0.12
24 | U20A C23A C31A | 0.17

Row | Variant | self-cleavage
25 | C10A A41U C46G | 0
26 | A6C A14G G36U | 0.22
27 | G2U A14C G17C G29C U38G | 0
28 | G5C C10U C18A G35A | 0.04
29 | A6U A11U C23G A26C | 0.27
30 | G7A C13U G36C G40C | 0.24
31 | G1A C8A G29C U34A | 0.28
32 | G27C C31G C37U | 0.03
33 | G1C G5A C23G C42A | 0.07
34 | A4C C8U U38A | 0.1
35 | A16U G19C G30A | 0.14
36 | G1C G5U U32C | 0.01
37 | C3G G17A C18U A41C | 0.04
38 | A6C A16U A25U A26G C37G | 0.01
39 | A11U G17C A24U C42U U43C | 0.04
40 | G2C C15U C31G U32C U43G | 0.01
41 | C37G G40A G44U | 0
42 | C3A G5C C18G U20A C23U | 0.05
43 | G1U G7U C15A C31U G33A C42A | 0.13
44 | C3G U20C G27U C31G U38G | 0.21
45 | G2U G5A G7A C10U A11C A16C | 0.01
46 | G2U C37U A39G | 0.01
47 | C3A G19C C37U | 0.02
48 | U32G G40A C45U | 0.01

Row | Variant | self-cleavage
49 | G17C U20A C45U | 0.15
50 | C3U G7C G21C A24C A39C G44U | 0.06
51 | G19C U20A G29C C37U | 0.07
52 | C3G C8U A11G U43A C46U | 0.06
53 | G7U G17A G21U U28C | 0.03
54 | U20A G27A U28C G35U | 0.1
55 | G2A U9A C18G | 0.19
56 | G1U U9G C42U | 0.04
57 | C3A C8U A14C A24G | 0.49
58 | G19A G29U G30U C37A C45G | 0.08
59 | G7U C10A A26C G33A | 0.01
60 | U34A G36A A41C C45U | 0
61 | A6C U20C A26G G27C | 0.41
62 | C8U C18A A25C U32C G35U C45A | 0.01
63 | A11C C31U G40A U43A | 0.02
64 | G27C U28C G29U G44A | 0.19
65 | A14U G21C U34C | 0.09
66 | A11G C18U U38G C42A U43A | 0
67 | A6C C10A A14U A24C C46A | 0.04
68 | A14U U20G C23G | 0.14
69 | A4U G5U A12C C13U C45U | 0.01
70 | A4G U9A A11C G36U | 0.02
71 | A16C A24G C31U A39C A41U | 0.03
72 | A24C A41U C45A | 0.06

Row | Variant | self-cleavage
73 | A26G U34G C42A | 0.01
74 | A4U C10A G17C A24G G29U | 0.03
75 | C8G A26C G27A C46G | 0.03
76 | C10A A24G G33C | 0.02
77 | C8A C42G C45U | 0.07
78 | G7C U9C G19U G30U G33U | 0.02
79 | G2C C13U U20G | 0.01
80 | C18A A24C U32A | 0
81 | G1C A14C G19U G21C | 0.01
82 | C8A U28C G30A G33C | 0.06
83 | C3A U9A A25C G40A | 0.18
84 | G21U A26U G36C U43C | 0.06
85 | A4C G5A U28G G30C | 0.48
86 | C10G G22A G27A G30U | 0.05
87 | C3G A14U A41G C42A | 0.41
88 | A4G U32A C37G | 0
89 | C15A C31U G40A U43A | 0
90 | G5C C15A A25C G27U | 0.04
91 | G5C A6U A14G C23A G27U | 0.22
92 | G1U A6G C18U C42G | 0
93 | G17A A26C U34A G35U U43A C46A | 0
94 | G1U A24G G29U | 0.48
95 | G5U G21U G44U | 0.09
96 | C3A A14U C15U G27U | 0.13

Row | Variant | self-cleavage
97 | C31G C37U A41C | 0.03
98 | G5U C13G G22C G33U C37G | 0.03
99 | A6C U20A G44A | 0.06
100 | C18U U20G G36C C46G | 0.02
101 | A11G G30A G33U | 0.03
102 | C15A C31G G40C | 0.02
103 | A4C C8A U20A G22U G44C | 0.1
104 | C13A C15A G17A G19C G22C U43G C45G | 0.07
105 | G1A G2U U9A C13G U32A | 0.1
106 | G5U A11U A39C | 0.02
107 | G1C A25C G40A | 0.01
108 | G7C G17A G19A | 0.07
109 | C10A A11U G33U C37A C45U | 0.01
110 | A6C U9A A14U C46U | 0.04
111 | A12G C18G G22U U28C U38A | 0.02
112 | C13A A39G G40A C45U | 0.09
113 | U9C U28G U38A | 0
114 | G5C C8A A11U | 0.02
115 | G2A G7U U9C A12G C31A U38G | 0.02
116 | C3U A6U C10A G27U G35U | 0.04
117 | A6U C13A A24U G30A | 0.02
118 | G2U A26U C31A | 0.03
119 | C13U G35C C37G | 0.02
120 | G5U G17A A24C A25C G36C | 0.02

Row | Variant | self-cleavage
121 | A4C A26U U28C G30U U32A U43A | 0.03
122 | G2A U9G C23A | 0.33
123 | G30A G33C C46U | 0.06
124 | C8G C13A G19A | 0.03
125 | G1A G19U G27A C31G | 0.04
126 | A6U G22A A24G | 0.4
127 | G5U C10U G17A | 0.08
128 | G30C U43C G44U | 0.02
129 | G1C C3U A12G G29A U34G | 0.01
130 | G2U C13U A16G G17A A39G | 0.06
131 | C10G C18G G33A C45A | 0.02
132 | G5A A16C C18G U32A C37G | 0.04
133 | G7U U9A A26G | 0.05
134 | G1C A39U C42A | 0.01
135 | G5C C13G G21C C23U G29A | 0
136 | A11U A12G C13G U28A U38A | 0.01
137 | A11U C13U G19A A26G | 0.03
138 | G1A G5C A16G G19U G22C C37A | 0.04
139 | G7U G19U C42A | 0.02
140 | A26G A39G G40A C42U | 0.03
141 | C3G A11C G30U | 0.01
142 | U9G C37U U38G C42A | 0.04
143 | G21U G36C C45U | 0.07
144 | G1A A16U G36A G40A G44U | 0.03

Row | Variant | self-cleavage
145 | C8A A12U G22C | 0.05
146 | A6U C15U G36A | 0.1
147 | A6G U9G A11G G22U C46U | 0.03
148 | G2C A11U C18U G21C C23G G27C | 0.01
149 | U32G C37A U43C | 0
150 | G1A C13A A39G | 0.11
151 | G19A U20G C37G | 0.04
152 | A16C C23U A24G | 0
153 | A24C G30A U43A | 0.07
154 | C8A A16U U34G | 0
155 | A11G A24U C42G | 0.01
156 | G5A U9C G22U G27U C31G | 0.01
157 | G1A G21C G30U | 0.23
158 | C18A G21C G35U | 0.01
159 | U9G A14C C15G | 0.02
160 | G17U G29U U34C G40U | 0.11
161 | G1U A4G A24U | 0.17
162 | C3A C10U U38A A39G | 0.15
163 | A12C G30U G36C C37A | 0.01
164 | G30U U38C A41G C46U | 0.17
165 | G17U A26C G29C | 2.24
166 | G7A U32A U38A | 0.08
167 | G2C C13G C23G | 0.04
